Read counts are not given, so values of variants with three or more changes are uncertain.
B1: OR4K15 (parent)
chain: GUUAACGGUCAUAGGCCAUGGAAACUAGGAGCACCAUUUCGCUGCCAGUGAAGAAAUGAACAAAGAAAAUCUGGGCCAGGCAGGCAUCAAAAGAAAUAGUCUUGCGCUCAACCAGAAAGUCUGUAAUCAUUUUAAGGGUA

Variants of: B1
Assay: self-cleavage, relative activity (ratio to wild type); higher = more cleavage; in vitro, sequencing; the parent is a self-cleaving ribozyme

| Variant | self-cleavage |
| --- | --- |
| U9A U70A A96G | 1.01 |
| U9A U43A U127A | 1.43 |
| U9A U97G U127C | 0.58 |
| G8A A78G A114G G137A | 0.13 |
| U9A A47G A111G G115U | 0.01 |
| G8A U108C A118G A135U | 0 |
| U9C A55G A98U | 0.95 |
| U9C A52G A56G A89U | 1.79 |
| U9C A59G A62G | 0.43 |
| U9C A22G A54G A63G A66G A110U | 1.09 |
| U9A A94G A116G | 0.23 |
| U9A A66G A89G A114G | 0.26 |
| U9C A90G A134G | 0.2 |
| U9C C34U U127C | 1.27 |
| U9C A111G U120G | 0.04 |
| U9A A67G A95G A110U | 1.68 |
| U9C A11U A111G | 0.04 |
| U9A A24G C61U A92G | 1.12 |
| U9C A78G A116U | 0.12 |
| G8A A36G U49G A126G | 1.32 |
| G8C A63U G80A A90G A94U | 0.59 |
| U9C U12A A69U | 1.27 |
| U9C A51U A125G | 1.52 |
| U9C A117G U122C U130C | 1.55 |

| Variant | self-cleavage |
| --- | --- |
| U9C A11G U102C A126G | 0.88 |
| G8C U43C A54G A66G | 1.67 |
| U9C A22G U132G | 1.87 |
| U9C A67G A92G | 1.48 |
| U9A U12A A47U A51U A94U U131C | 0.52 |
| U9A A95G U102C | 2.54 |
| U9C C46U A95G A116U | 0.51 |
| U9A A68G U108C | 0.04 |
| U9C A27U U70C G74A | 0.43 |
| G8A A22G A67G A78G | 0.2 |
| U9C U12C A82U A118G | 0.15 |
| U9A U39C U127C A129G | 0.44 |
| U9C A24G A110G | 0.11 |
| G7A U108C U122C A126G A129U | 0.01 |
| G8A A63G A90G U120C A129G U132G | 0.13 |
| G7U A82U A98C U108C U122C | 0.01 |
| U9C A11G A36U A110U | 0.71 |
| G8U A33G A114C | 0.02 |
| G8A A52U A67G | 1.99 |
| U9C A33U A52G A90G | 1.36 |
| U9C A60G U72C | 0.27 |
| G8U C16U U87C A91G U102A | 0.73 |
| U9A A60G U122C | 0.88 |
| U9C A82G G123A U127C | 0.26 |

| Variant | self-cleavage |
| --- | --- |
| G7U A62U A86G | 2.05 |
| U9C A24G A33G A82U | 0.21 |
| U9C A33G U49A U87C A117G | 1.38 |
| G7U A23G A54G | 1.63 |
| U9A A62G A82U C107U | 0.03 |
| U9C A24G A54U A59G A95G | 1.48 |
| U9C A60G U130C | 0.72 |
| U9A U26C A51U A52U A78U | 0.13 |
| U9C A22G A94G | 1.48 |
| U9C A63G A68G A82G A91G U100C | 0.61 |
| U9C A56G U108G | 0.07 |
| U9C A23G U49C U102C A135G | 0.7 |
| U9C G28U U43C A52G | 0.79 |
| G8A A13G C81U U131C | 0.6 |
| U9A U39C U87C | 1.64 |
| U9C G44A A68G A90G | 0.79 |
| U9A A63G U122A | 0.78 |
| U9A U43A C45U G80A | 0.3 |
| U9C A68G A89G | 1.68 |
| U9C U19C A52G A69U A82G A90G U102C | 0.49 |
| U9A U57C A66G A91G U139A | 0.48 |
| U9C U12C A54G A67G | 0.68 |
| U9C C46U A62G A89G | 1.59 |
| U9C A11U G84U U100C | 0.38 |

| Variant | self-cleavage |
| --- | --- |
| U9A A47U A117G | 0.59 |
| U9C A22G U26C U72A U133A | 0.43 |
| U9C A22G A36G A54G A111G | 0.08 |
| U9A U49C A66G A95G | 1.8 |
| U9C U12C A22G A24G A78G U103C | 0 |
| U9C A33G A94G | 1.27 |
| U9C A78G A90G A116U | 0.06 |
| U9A A51G A86G | 1.11 |
| U9C A11G U87C | 1.13 |
| U9C A63G U97C | 2.25 |
| U9C A66G U72C A94C A118U | 0.08 |
| U9A A22G A23G U127A | 1.5 |
| U9C A91G U122C | 1.08 |
| U9A U87C C107U U131C | 0.01 |
| U9C A62G A68G | 1.24 |
| G8A A22G A62G U130G U132C | 0.97 |
| G8C U43C A60G | 1.56 |
| U9C A36U A95G | 1.78 |
| U9C A22G C71U G104A U122C U130C | 0.02 |
| U9C A27G U39C G74A | 0.22 |
| U9C A94G U108C U122G | 0.01 |
| U9A A24G U70C A116U | 0.36 |
| U9C A64G A82G | 0.3 |
| U9C A129U A135G | 2.02 |

| Variant | self-cleavage |
| --- | --- |
| U9C A24G C34U A68G G75C | 0.3 |
| G7U U12C A30G A91G | 0.62 |
| U9A A36U A78G U139C | 0.17 |
| G7A U9C U19C A23G | 2.06 |
| U9A A94G U103C | 1.1 |
| G7U A91G A125G | 0.56 |
| U9A A23G U37C | 1.44 |
| G7U A55G A64G U103C U132C | 1.17 |
| G7A G53U A60G A95G U130C | 0.75 |
| U9C U19A U122C | 1.02 |
| U9A G29A A60G U72A | 0.18 |
| U9C A60G A86U U108A A126G | 0.01 |
| U9C A51G A56G C77U | 0.82 |
| U9A A62G A126G | 1.41 |
| G8A A89U A96G | 1.55 |
| U9C A36G A140G | 1.49 |
| G7U U127A U130C | 0.84 |
| G7U A95U U102C | 2.41 |
| U9A A92U U97C U100C U122C U132C | 2.04 |
| U9C U12C A24G | 2.67 |
| U9A A69U A82G | 1.01 |
| U9C A13G A52U U130C | 0.44 |
| U9A A90G U124A A129U | 0.02 |
| G8U A22G A78U A94G A140G | 0.95 |

| Variant | self-cleavage |
| --- | --- |
| U9C A56G U87C A90G | 0.97 |
| U9C C42U A67G | 0.81 |
| U9A A63G G138A | 1.54 |
| U9C A18G A52U U131A | 1.61 |
| U9A A59G U100C U103C | 2.23 |
| U9C A22G A52U U108C C121U | 0.02 |
| U9C A47U U108C A118G | 0 |
| U9C A23G A36G | 0.62 |
| U9C A22G A110G A111G G137A | 0.05 |
| G8A A24G U49C A63G A135G A140G | 1.74 |
| U9A A98G A114G A117G | 0.14 |
| G7U A51G A54G U87C A111G | 0.05 |
| U9C G28A A30U A56G | 1.95 |
| U9C A90G A118G | 0.63 |
| U9A U19C A60U A64G A69G | 0.9 |
| U9C A51U G80C | 0.14 |
| G8C A55G U132C | 1.99 |
| U9A U57C A59G A89G A117G U131C | 0.92 |
| U9A U39A U57C | 1.17 |
| U9C A18G A78G A89U A95G | 0.49 |
| U9A U72C A89G A92G U102A U108A | 0.02 |
| U9C A56G A134C | 1.52 |
| G7U A30G A91G | 1.49 |
| U9C A86G A98G | 0.7 |

| Variant | self-cleavage |
| --- | --- |
| U9C G29A A30G A94G U127C | 1.18 |
| U9A A47G A54U A82C A110U | 0.1 |
| U9C C17U A47U U72C A95G | 0.39 |
| U9A U39C A67G A89U | 1.38 |
| U9C U12G A64G A90G A125U A126G | 1.14 |
| U9C A11G U38C A52G A59G | 0.48 |
| U9C A11G U72A U130C | 0.16 |
| U9C A24G U38C A67G A96G | 0.89 |
| U9C A55G A126G | 0.89 |
| U9C A91G A117G | 1.41 |
| U9C A24G A96G | 0.76 |
| U9C A96G A134G | 2.14 |
| U9C G50A A66G | 1.51 |
| G7A U49C A94U | 1.32 |
| U9A A55U A56G A60G A89G | 0.58 |
| U9A C81A U124C | 0.19 |
| U9A A47U U100C A118C | 0.79 |
| U9A A52G C109U | 0.45 |
| U9C A56G U102C | 1.27 |
| U9C A11G G65U A110G A129G | 0.08 |
| G7A U9C U12C U97C U139C | 0.85 |
| U9C G21U U72A A94G A116G U130A | 0 |
| G8A C76A A135G | 0.1 |
